From US20060177456A1 (Genentech, published 2006)

Tests used:
Assay in all cases: BIACORE
[1] = molecular target: T1, Fas/Apo-1 ligand (Alexis Biochemicals) (UniProt P48023 103-281, limits assumed)
T1 construct: also called Fas ligand; CD95 ligand
T1 sequence (looked up): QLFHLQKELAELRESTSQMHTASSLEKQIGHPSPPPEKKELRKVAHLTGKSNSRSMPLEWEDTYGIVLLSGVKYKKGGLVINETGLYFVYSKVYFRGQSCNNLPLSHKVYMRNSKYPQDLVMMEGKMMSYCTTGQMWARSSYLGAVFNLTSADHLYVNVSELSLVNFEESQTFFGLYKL

[2] = molecular target: T2, lymphotoxin-alpha (Genentech, Inc.) (UniProt P01374 35-205, limits assumed)
T2 construct: also called TNF-beta
T2 sequence (looked up): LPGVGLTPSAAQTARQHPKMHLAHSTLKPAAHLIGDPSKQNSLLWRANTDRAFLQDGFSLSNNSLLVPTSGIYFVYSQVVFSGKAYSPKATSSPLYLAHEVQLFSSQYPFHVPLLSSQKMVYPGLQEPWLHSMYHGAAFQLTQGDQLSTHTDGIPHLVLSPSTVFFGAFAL

[3] = molecular target: T3, soluble poly-histidine-tagged Apo-2 ligand (amino acids 114-281) (UniProt P50591 114-281)
T3 construct: Prepared as in Pitti et al. and WO 97/25428; also called TRAIL; soluble His-tagged Apo-2L; not shown: poly-histidine tag
T3 sequence (P50591 114-281 limits assumed): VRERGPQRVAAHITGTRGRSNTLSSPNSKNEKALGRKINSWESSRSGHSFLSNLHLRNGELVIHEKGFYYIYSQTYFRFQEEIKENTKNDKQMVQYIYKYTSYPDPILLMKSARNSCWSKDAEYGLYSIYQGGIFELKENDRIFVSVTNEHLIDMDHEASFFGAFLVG

[4] = molecular target: T4, TNF-alpha (Genentech, Inc.) (UniProt P01375 fragment)
T4 construct: also called tumor necrosis factor-alpha
T4 sequence (P01375 77-233 limits assumed): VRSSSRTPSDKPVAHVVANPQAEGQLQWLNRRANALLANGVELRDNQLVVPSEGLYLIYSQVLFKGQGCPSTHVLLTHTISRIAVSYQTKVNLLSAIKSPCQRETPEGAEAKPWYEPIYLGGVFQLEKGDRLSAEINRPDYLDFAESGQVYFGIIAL

B1: Apo-2 ECD-Flag (soluble Apo-2 extracellular domain, amino acid residues 1-184 of FIG. 1, fused to a C-terminal Flag epitope tag) (receptor, not shown: small tags and cut ends)
chain: not shown
notes: Expressed in human 293 cells; Construct is residues 1-184; Residues 183-184 are predicted transmembrane residues kept for flexibility; also called soluble Apo-2 ECD
Does B1 bind [1]?
Result: no binding

Does B1 bind [2]?
Result: no binding

And the Kd [3]?
Its Kd is ~1 nM.

Does B1 bind [4]?
Result: no binding
